These are yes or no findings as the source states them, for the method shown. For part of these data: Binding seen in cells or lysates may run through a third protein. Some results given as binding are weak or reduced against the parent protein; the word gives no strength. For part of these data: Tags and fused reporters may be left off the sequences shown.
B1: TARGET OF FLC AND SVP 1 (TFS1/REM17) (protein, UniProt Q84WP3 1-920)
chain: MADQSLLHSPINPHFFQPILTESRTHLNIPVAFFSKHVEGRNNQNKTVTLRSDASDKTWLVKMDGLKLTDGWEDFAFAHDLRTGDIVVFRLEGEMVFHVTALGPSCCEIQYHTSSHNINDDDRNDQINIASRNSSRVKKNPRKKVESSLDHSRFVAKVSAWCLSNDRLYIPLSFARLNGLNKINSKKIYLQNEEGRSWKLVLRHDKSGMQTFVQSGWRRFCSENGIRQGQYTFKLVRKSAPPVIRLCRAKAKPKQRSVAEYSSDHSCFEGSVTPSSLRNDLLYLPRSFVNSNRLDKRCSEIVLKNEQGVKWPLVLKRFKSVTYLPKGWTSFCQVNRIKAGDSFKFKLVGTWKKPVLSLCPTQSNNHKTPLECSEGNKSEESEEDCLEVKKKKYWSRCRASVENMDDDQTNIGNSSRKKRVSKNPREKVESSSDHSSFVGSVNPSSLYKDQLYLPRNFVSSNFLDKRCSEIVLKNERGEKRTLVLKHFKKDLTFLKKGWTSFCQVNRIKAGDSFKFKLVGTWNKPVLSLCPTETNYHKTPLACSEGNKSEESEEEGTEDKNTSQDCLEVKKRKYWSTCRASAENIDDDQTNIGNSSKEKRVKKNPVKKAESSSDHSSFVANVTASSLNYDRLYLPLSFVSSNGLDKMNGKEIVLLNEEGLSWKFNLKYNQAGKHTYVRPGWSRFCDANGMSQGQQFTFKLVQKHGPPVMYLSLSEHRPKSESSSHRSYFVGSVTASSIKKDKLYLWKSFVSSNGLDKGCKKIILKNKWGREWKLVLKHYKSNCFTIIKRGWTSFCQGNGLKAGDSFKFKLVGTGEKPVLSLCPAESSHEKIPLECPEGIDDVNSLSSNPSSGDDSSRSEESEEENMEDKNISQDCLETKKRKYCSSSSYSQNRFVTLTLTRSAFQTYKLVSFFNNYASRLS
B2: TARGET OF FLC AND SVP 1 (TFS1/REM17), BiFC fusion (protein, UniProt Q84WP3 1-920)
chain: MADQSLLHSPINPHFFQPILTESRTHLNIPVAFFSKHVEGRNNQNKTVTLRSDASDKTWLVKMDGLKLTDGWEDFAFAHDLRTGDIVVFRLEGEMVFHVTALGPSCCEIQYHTSSHNINDDDRNDQINIASRNSSRVKKNPRKKVESSLDHSRFVAKVSAWCLSNDRLYIPLSFARLNGLNKINSKKIYLQNEEGRSWKLVLRHDKSGMQTFVQSGWRRFCSENGIRQGQYTFKLVRKSAPPVIRLCRAKAKPKQRSVAEYSSDHSCFEGSVTPSSLRNDLLYLPRSFVNSNRLDKRCSEIVLKNEQGVKWPLVLKRFKSVTYLPKGWTSFCQVNRIKAGDSFKFKLVGTWKKPVLSLCPTQSNNHKTPLECSEGNKSEESEEDCLEVKKKKYWSRCRASVENMDDDQTNIGNSSRKKRVSKNPREKVESSSDHSSFVGSVNPSSLYKDQLYLPRNFVSSNFLDKRCSEIVLKNERGEKRTLVLKHFKKDLTFLKKGWTSFCQVNRIKAGDSFKFKLVGTWNKPVLSLCPTETNYHKTPLACSEGNKSEESEEEGTEDKNTSQDCLEVKKRKYWSTCRASAENIDDDQTNIGNSSKEKRVKKNPVKKAESSSDHSSFVANVTASSLNYDRLYLPLSFVSSNGLDKMNGKEIVLLNEEGLSWKFNLKYNQAGKHTYVRPGWSRFCDANGMSQGQQFTFKLVQKHGPPVMYLSLSEHRPKSESSSHRSYFVGSVTASSIKKDKLYLWKSFVSSNGLDKGCKKIILKNKWGREWKLVLKHYKSNCFTIIKRGWTSFCQGNGLKAGDSFKFKLVGTGEKPVLSLCPAESSHEKIPLECPEGIDDVNSLSSNPSSGDDSSRSEESEEENMEDKNISQDCLETKKRKYCSSSSYSQNRFVTLTLTRSAFQTYKLVSFFNNYASRLS
B3: REM13 (protein, UniProt Q9STF1 1-276)
chain: MEENSSKKKLSETMSIQDTVLKFFRVYIPNQTADDMNLPLVSDKISGKPLPRKVTVKSVSSGNIWRMEMKANGNTVFLRDGWKKIVKDENVTEPIFLEFEFDGYGVFHFCVYEYGSMCKRMRSPMEKEVIKVDSEEDVLVGNEESTKGLEESPRRGGTSRRRAKLKTKSHKIYEHLDNKLNPSFPVDMTQNRTRIPSLLIKDYNLTFPNMVIMRDKIGILKRRIVIWKNRSVYLNGIGSIIRRNHVKPGNEVVFELKMVNGYHGLVHEIKVHIIKA

Legend:
[1] = target: T1, REM34 (Arabidopsis thaliana) (UniProt Q84J39); experiment: two-hybrid; yeast strain AH109; bait (pGBKT7) and prey (pGADT7) co-transformed; synthetic dropout medium lacking leucine, tryptophan and histidine with 1, 2.5 or 5 mM 3-AT; 5 days at 28 °C; four independent colonies for each pair
T1 sequence: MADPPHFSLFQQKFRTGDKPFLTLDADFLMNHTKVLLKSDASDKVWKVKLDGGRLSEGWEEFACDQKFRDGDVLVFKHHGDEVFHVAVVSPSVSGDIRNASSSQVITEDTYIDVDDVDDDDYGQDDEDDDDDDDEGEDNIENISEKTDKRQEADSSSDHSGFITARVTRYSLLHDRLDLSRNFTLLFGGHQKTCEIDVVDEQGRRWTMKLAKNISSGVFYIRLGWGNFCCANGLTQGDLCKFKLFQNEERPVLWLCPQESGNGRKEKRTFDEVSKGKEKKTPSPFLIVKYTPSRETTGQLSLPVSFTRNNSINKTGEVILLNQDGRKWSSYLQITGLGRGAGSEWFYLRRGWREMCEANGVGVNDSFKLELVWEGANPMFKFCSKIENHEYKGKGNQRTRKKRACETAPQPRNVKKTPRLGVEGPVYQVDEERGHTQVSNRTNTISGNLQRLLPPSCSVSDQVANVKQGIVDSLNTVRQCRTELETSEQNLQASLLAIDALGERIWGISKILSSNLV

[2] = target: T2, TARGET OF FLC AND SVP 1 (TFS1/REM17) (Arabidopsis thaliana) (UniProt Q84WP3); experiment: as above
T2 sequence: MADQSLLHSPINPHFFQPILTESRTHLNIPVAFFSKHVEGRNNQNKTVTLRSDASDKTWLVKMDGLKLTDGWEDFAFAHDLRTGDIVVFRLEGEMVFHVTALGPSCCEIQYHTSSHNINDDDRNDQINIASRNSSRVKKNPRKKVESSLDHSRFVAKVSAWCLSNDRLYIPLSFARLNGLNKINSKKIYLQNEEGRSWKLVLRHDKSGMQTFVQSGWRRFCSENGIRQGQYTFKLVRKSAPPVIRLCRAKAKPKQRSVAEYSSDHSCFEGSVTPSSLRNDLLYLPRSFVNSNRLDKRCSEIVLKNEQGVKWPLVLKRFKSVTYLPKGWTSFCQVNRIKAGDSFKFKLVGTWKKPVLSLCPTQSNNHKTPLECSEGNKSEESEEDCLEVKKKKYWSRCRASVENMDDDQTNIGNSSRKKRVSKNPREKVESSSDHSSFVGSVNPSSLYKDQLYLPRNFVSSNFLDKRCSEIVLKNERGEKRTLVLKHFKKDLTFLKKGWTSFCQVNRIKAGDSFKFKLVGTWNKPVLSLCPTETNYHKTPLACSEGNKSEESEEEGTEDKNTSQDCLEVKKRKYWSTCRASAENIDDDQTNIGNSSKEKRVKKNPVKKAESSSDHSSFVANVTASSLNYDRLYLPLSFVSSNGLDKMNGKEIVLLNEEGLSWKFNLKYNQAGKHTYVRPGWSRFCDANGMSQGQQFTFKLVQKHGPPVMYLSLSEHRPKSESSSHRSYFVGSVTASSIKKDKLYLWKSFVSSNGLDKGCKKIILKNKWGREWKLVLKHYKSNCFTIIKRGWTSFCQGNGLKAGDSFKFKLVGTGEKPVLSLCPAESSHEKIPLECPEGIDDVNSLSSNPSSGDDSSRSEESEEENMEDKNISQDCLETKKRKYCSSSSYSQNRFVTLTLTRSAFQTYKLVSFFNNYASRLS

[3] = target: TARGET OF FLC AND SVP 1 (TFS1/REM17), BiFC fusion (Arabidopsis thaliana) (UniProt Q84WP3); experiment: split reporter; BiFC (pYFN43 / pYFC43) in Nicotiana benthamiana leaves infiltrated with Agrobacterium and the viral suppressor p19; confocal imaging of the abaxial surface three days after inoculation
[4] = target: REM13 (Arabidopsis thaliana) (UniProt Q9STF1); experiment: two-hybrid; yeast strain AH109; bait (pGBKT7) and prey (pGADT7) co-transformed; synthetic dropout medium lacking leucine, tryptophan and histidine with 1, 2.5 or 5 mM 3-AT; 5 days at 28 °C; four independent colonies for each pair

| Binder | binding [1] | binding [2] | binding [3] | binding [4] |
| --- | --- | --- | --- | --- |
| B1 | no binding | binds | – | – |
| B2 | – | – | binds | – |
| B3 | no binding | no binding | – | no binding |

— paper PMC10267284
